From the supplement of paper PMC10126150
Values marked as one replicate rest on one cluster of the flow cell; about a third of the high ones do not repeat.

System: ATP
Assay: switch fluorescence ratio, 500 uM ATP over buffer (Cy3 cluster intensity, sum of 5 cycles each) (fold (ratio)); higher = stronger signal-on switching upon ATP binding; sequences stand for … in TCGTCGGCAGCGTCAGATGTGTATAAGAGACAGTTTTTTTTTTTTTTTTTTTTTTTTT…TC
Conditions: aptamer strand: ATP DNA aptamer (quencher-CACCTGGGGGAGTATTGCGGAGGAAGG + anchor), 100 nM annealed; ATP concentration: 500 uM; one replicate
Procedure, shortened: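 Exposure to 500 uM ATP lasted 15 min at 22 °C before imaging, and a selection-buffer image was taken beforehand, for Cy3-labelled switching-strand clusters on a modified Illumina MiSeq flow-cell annealed to 100 nM quencher-labelled ATP aptamer. Five buffer/ATP cycles were run with NaOH stripping and re-annealing between them. The fluorescence ratio per cluster is summed target-cycle over summed buffer-cycle Cy3 intensity, averaged per switch-domain sequence. Clusters outside 100-1000 RFU were excluded.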

| Sequence | switch fluorescence ratio |
| --- | --- |
| CCTGCATCGG | 1.15 |
| CCTGCGAGAT | 3.84 |
| CCTGCGGTCA | 1.17 |
| CCTGCGTCTC | 3.07 |
| CCTGCTATGA | 1.33 |
| CCTGCTGCCC | 1.37 |
| CCTGGACACG | 1.03 |
| CCTGGCACGA | 1.22 |
| CCTGGCACTT | 1.8 |
| CCTGGCGGGT | 1.62 |
| CCTGGCTATT | 1.17 |
| CCTGGGTGTA | 1.44 |
| CCTGGTAAGA | 0.987 |
| CCTGGTGCTG | 1.08 |
| CCTGGTTACT | 1.04 |
| CCTGGTTGA | 0.983 |
| CCTGTACTTA | 1.04 |
| CCTGTCCTGC | 1.07 |
| CCTGTCTGGT | 0.94 |
| CCTGTGAAGT | 1.03 |
| CCTGTGTTGG | 1.03 |
| CCTGTTGACG | 1.01 |
| CCTTAAACTT | 1.07 |
| CCTTAATTAC | 2.06 |
| CCTTACAACA | 1.04 |
| CCTTATTTT | 1 |

| Sequence | switch fluorescence ratio |
| --- | --- |
| CCTTCACGAG | 1.32 |
| CCTTCACTGC | 2.05 |
| CCTTCCCTTG | 1.48 |
| CCTTCCTGTT | 1.51 |
| CCTTCTTTT | 1.01 |
| CCTTGAACT | 0.99 |
| CCTTGAAGTG | 1 |
| CCTTGCTGC | 2.63 |
| CCTTGGCAAT | 4.92 |
| CCTTGGGGTC | 1.01 |
| CCTTGTATGT | 1.03 |
| CCTTGTTCTT | 0.989 |
| CCTTTACTTA | 1.07 |
| CCTTTAGGCC | 0.989 |
| CCTTTATACG | 1.28 |
| CCTTTCAGCA | 1.93 |
| CCTTTCATCA | 1.01 |
| CCTTTTATGG | 1.02 |
| CCTTTTGTGC | 1.15 |
| CCTTTTTGAC | 1.01 |
| CCTTTTTTTC | 0.978 |
| CGAAAACGCC | 1.11 |
| CGAAAAGATC | 1.1 |
| CGAAACATTA | 1.06 |
| CGAAACTATG | 1.03 |
| CGAAAGGAGT | 1.03 |

| Sequence | switch fluorescence ratio |
| --- | --- |
| CGAAAGGATC | 1.03 |
| CGAAAGGTGA | 1.02 |
| CGAAATAAGT | 0.991 |
| CGAAATAGGA | 1.07 |
| CGAACAGGCT | 1.03 |
| CGAACAGGGT | 1.01 |
| CGAACCCTAC | 1.32 |
| CGAACCTGTG | 1.05 |
| CGAACGGTGA | 1.05 |
| CGAACGGTTA | 1.14 |
| CGAACTCAGC | 1.18 |
| CGAACTTATA | 1 |
| CGAAGACTA | 1.01 |
| CGAAGCTATT | 2.5 |
| CGAAGGAACA | 0.985 |
| CGAAGGCGGG | 1.02 |
| CGAAGGGCCA | 0.964 |
| CGAATAATTC | 1.03 |
| CGAATACGGA | 1.1 |
| CGAATAGTAT | 1.03 |
| CGAATATG | 1.13 |
| CGAATCCGGT | 1.01 |
| CGAATGGTA | 0.987 |
| CGAATGTAGG | 0.954 |
| CGAATTGAGT | 0.989 |
